Source: article PMC12820563, “FoxP3 forms a head-to-head dimer in vivo and stabilizes its multimerization on adjacent microsatellites”
The other results are listed elsewhere or left out.

Target: T1, MBP-FoxP1dN (Mus musculus, UniProt P58462 326-579)
T1 sequence: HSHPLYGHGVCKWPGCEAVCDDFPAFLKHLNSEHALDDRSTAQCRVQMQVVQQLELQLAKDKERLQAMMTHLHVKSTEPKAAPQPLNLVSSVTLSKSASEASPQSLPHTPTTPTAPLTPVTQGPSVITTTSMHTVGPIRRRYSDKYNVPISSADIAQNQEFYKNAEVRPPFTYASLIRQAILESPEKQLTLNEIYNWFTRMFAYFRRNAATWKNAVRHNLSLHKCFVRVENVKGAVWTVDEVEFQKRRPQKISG
Assay: PD-seq (MBP pull-down with sequencing); 20 mM Tris-HCl pH 7.5, 100 mM NaCl, 1.5 mM MgCl2, 0.4 uM protein, 0.1 uM dsDNA library, 30 min, room temperature, amylose pull-down; high values mean tight binding
Settings: protein: recombinant; tags: His6-MBP; chain copies: 2; dsDNA, one strand shown
Summary of the method: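 A degenerate double-stranded DNA library, filled in with Klenow, was added at 0.1 µM to 0.4 µM His6-MBP-tagged mouse FoxP3 or FoxP1 fragment lacking the N-terminus, expressed in E. coli. Incubation lasted 30 min at room temperature in Tris pH 7.5 buffer with NaCl and MgCl2, after which complexes were collected on amylose resin, washed three times, digested with proteinase K to free the DNA, barcoded by PCR and sequenced by Illumina. Binding is the pooled-replicate reads-per-million enrichment of pull-down over input.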

Sequence	binding signal
GATGATTGTTCTCCCAGCTGATGAATTTTAGTCGTCGAGTAAACAAATTTTCCTAATCTTTCTGTTCAAGCGCCATCTAC	0.965 RPM ratio (pull-down/input)
GATGATTGTTCTCCCAGCTGATGAATTAGTTAAGTCGAGTAAACAAATTTTCCTAATCTTTCTGTTCAAGCGCCATCTAC	0.957 RPM ratio (pull-down/input)
GATGATTGTTCTCCCAGCTGATGAATTTAGTCACTCGAGTAAACAAATTTTCCTAATCTTTCTGTTCAAGCGCCATCTAC	1.01 RPM ratio (pull-down/input)
GATGATTGTTCTCCCAGCTGATGAATTTGCTATCTCGAGTAAACAAATTTTCCTAATCTTTCTGTTCAAGCGCCATCTAC	1.08 RPM ratio (pull-down/input)
GATGATTGTTCTCCCAGCTGATGAATTAGAAAGGTCGAGTAAACAAATTTTCCTAATCTTTCTGTTCAAGCGCCATCTAC	0.826 RPM ratio (pull-down/input)
GATGATTGTTCTCCCAGCTGATGAATTCCCCAAATCGAGTAAACAAATTTTCCTAATCTTTCTGTTCAAGCGCCATCTAC	0.929 RPM ratio (pull-down/input)
GATGATTGTTCTCCCAGCTGATGAATTGGGTAACTCGAGTAAACAAATTTTCCTAATCTTTCTGTTCAAGCGCCATCTAC	0.837 RPM ratio (pull-down/input)
GATGATTGTTCTCCCAGCTGATGAATTGAAGTTTTCGAGTAAACAAATTTTCCTAATCTTTCTGTTCAAGCGCCATCTAC	0.977 RPM ratio (pull-down/input)
GATGATTGTTCTCCCAGCTGATGAATTAAGGCAGTCGAGTAAACAAATTTTCCTAATCTTTCTGTTCAAGCGCCATCTAC	0.906 RPM ratio (pull-down/input)
GATGATTGTTCTCCCAGCTGATGAATTCAAAAGGTCGAGTAAACAAATTTTCCTAATCTTTCTGTTCAAGCGCCATCTAC	0.742 RPM ratio (pull-down/input)
GATGATTGTTCTCCCAGCTGATGAATTGGTGTGTTCGAGTAAACAAATTTTCCTAATCTTTCTGTTCAAGCGCCATCTAC	1.34 RPM ratio (pull-down/input)
GATGATTGTTCTCCCAGCTGATGAATTATCCGCGTCGAGTAAACAAATTTTCCTAATCTTTCTGTTCAAGCGCCATCTAC	0.955 RPM ratio (pull-down/input)
GATGATTGTTCTCCCAGCTGATGAATTTCTGTGGTCGAGTAAACAAATTTTCCTAATCTTTCTGTTCAAGCGCCATCTAC	0.924 RPM ratio (pull-down/input)
GATGATTGTTCTCCCAGCTGATGAATTGTCTTGATCGAGTAAACAAATTTTCCTAATCTTTCTGTTCAAGCGCCATCTAC	1.02 RPM ratio (pull-down/input)
GATGATTGTTCTCCCAGCTGATGAATTGCTGTATTCGAGTAAACAAATTTTCCTAATCTTTCTGTTCAAGCGCCATCTAC	1.43 RPM ratio (pull-down/input)
GATGATTGTTCTCCCAGCTGATGAATTACTTGGCTCGAGTAAACAAATTTTCCTAATCTTTCTGTTCAAGCGCCATCTAC	0.947 RPM ratio (pull-down/input)
GATGATTGTTCTCCCAGCTGATGAATTATAGGACTCGAGTAAACAAATTTTCCTAATCTTTCTGTTCAAGCGCCATCTAC	0.888 RPM ratio (pull-down/input)
GATGATTGTTCTCCCAGCTGATGAATTAGATTGATCGAGTAAACAAATTTTCCTAATCTTTCTGTTCAAGCGCCATCTAC	0.993 RPM ratio (pull-down/input)
GATGATTGTTCTCCCAGCTGATGAATTGACACTTTCGAGTAAACAAATTTTCCTAATCTTTCTGTTCAAGCGCCATCTAC	1.28 RPM ratio (pull-down/input)
GATGATTGTTCTCCCAGCTGATGAATTTCATCTCTCGAGTAAACAAATTTTCCTAATCTTTCTGTTCAAGCGCCATCTAC	0.749 RPM ratio (pull-down/input)
GATGATTGTTCTCCCAGCTGATGAATTTCACGGCTCGAGTAAACAAATTTTCCTAATCTTTCTGTTCAAGCGCCATCTAC	0.843 RPM ratio (pull-down/input)

Sequence	binding signal
GATGATTGTTCTCCCAGCTGATGAATTTTAGGACTCGAGTAAACAAATTTTCCTAATCTTTCTGTTCAAGCGCCATCTAC	0.866 RPM ratio (pull-down/input)
GATGATTGTTCTCCCAGCTGATGAATTAGGAAAGTCGAGTAAACAAATTTTCCTAATCTTTCTGTTCAAGCGCCATCTAC	0.866 RPM ratio (pull-down/input)
GATGATTGTTCTCCCAGCTGATGAATTTTGATGATCGAGTAAACAAATTTTCCTAATCTTTCTGTTCAAGCGCCATCTAC	1.25 RPM ratio (pull-down/input)
GATGATTGTTCTCCCAGCTGATGAATTAGGACATTCGAGTAAACAAATTTTCCTAATCTTTCTGTTCAAGCGCCATCTAC	0.907 RPM ratio (pull-down/input)
GATGATTGTTCTCCCAGCTGATGAATTATGATCGTCGAGTAAACAAATTTTCCTAATCTTTCTGTTCAAGCGCCATCTAC	0.955 RPM ratio (pull-down/input)
GATGATTGTTCTCCCAGCTGATGAATTCACTATCTCGAGTAAACAAATTTTCCTAATCTTTCTGTTCAAGCGCCATCTAC	0.823 RPM ratio (pull-down/input)
GATGATTGTTCTCCCAGCTGATGAATTCATGGGTTCGAGTAAACAAATTTTCCTAATCTTTCTGTTCAAGCGCCATCTAC	0.828 RPM ratio (pull-down/input)
GATGATTGTTCTCCCAGCTGATGAATTTCGTGGTTCGAGTAAACAAATTTTCCTAATCTTTCTGTTCAAGCGCCATCTAC	0.868 RPM ratio (pull-down/input)
GATGATTGTTCTCCCAGCTGATGAATTGGAACCATCGAGTAAACAAATTTTCCTAATCTTTCTGTTCAAGCGCCATCTAC	0.908 RPM ratio (pull-down/input)
GATGATTGTTCTCCCAGCTGATGAATTAATTCAATCGAGTAAACAAATTTTCCTAATCTTTCTGTTCAAGCGCCATCTAC	0.961 RPM ratio (pull-down/input)
GATGATTGTTCTCCCAGCTGATGAATTGGACTCATCGAGTAAACAAATTTTCCTAATCTTTCTGTTCAAGCGCCATCTAC	0.851 RPM ratio (pull-down/input)
GATGATTGTTCTCCCAGCTGATGAATTTACCCCGTCGAGTAAACAAATTTTCCTAATCTTTCTGTTCAAGCGCCATCTAC	1.07 RPM ratio (pull-down/input)
GATGATTGTTCTCCCAGCTGATGAATTTCCGGGTTCGAGTAAACAAATTTTCCTAATCTTTCTGTTCAAGCGCCATCTAC	0.836 RPM ratio (pull-down/input)
GATGATTGTTCTCCCAGCTGATGAATTGTTCAAATCGAGTAAACAAATTTTCCTAATCTTTCTGTTCAAGCGCCATCTAC	1.24 RPM ratio (pull-down/input)
GATGATTGTTCTCCCAGCTGATGAATTAGGGGCGTCGAGTAAACAAATTTTCCTAATCTTTCTGTTCAAGCGCCATCTAC	0.879 RPM ratio (pull-down/input)
GATGATTGTTCTCCCAGCTGATGAATTTGAGTACTCGAGTAAACAAATTTTCCTAATCTTTCTGTTCAAGCGCCATCTAC	0.865 RPM ratio (pull-down/input)
GATGATTGTTCTCCCAGCTGATGAATTTCGCGAATCGAGTAAACAAATTTTCCTAATCTTTCTGTTCAAGCGCCATCTAC	0.891 RPM ratio (pull-down/input)
GATGATTGTTCTCCCAGCTGATGAATTATGTTTCTCGAGTAAACAAATTTTCCTAATCTTTCTGTTCAAGCGCCATCTAC	1.46 RPM ratio (pull-down/input)
GATGATTGTTCTCCCAGCTGATGAATTCTGTTTATCGAGTAAACAAATTTTCCTAATCTTTCTGTTCAAGCGCCATCTAC	2.76 RPM ratio (pull-down/input)
GATGATTGTTCTCCCAGCTGATGAATTTTATCCTTCGAGTAAACAAATTTTCCTAATCTTTCTGTTCAAGCGCCATCTAC	0.87 RPM ratio (pull-down/input)
GATGATTGTTCTCCCAGCTGATGAATTGCCCACGTCGAGTAAACAAATTTTCCTAATCTTTCTGTTCAAGCGCCATCTAC	0.92 RPM ratio (pull-down/input)

Sequence	binding signal
GATGATTGTTCTCCCAGCTGATGAATTCCCGCCATCGAGTAAACAAATTTTCCTAATCTTTCTGTTCAAGCGCCATCTAC	0.843 RPM ratio (pull-down/input)
GATGATTGTTCTCCCAGCTGATGAATTACTAAATTCGAGTAAACAAATTTTCCTAATCTTTCTGTTCAAGCGCCATCTAC	1.27 RPM ratio (pull-down/input)
GATGATTGTTCTCCCAGCTGATGAATTGTCAGCGTCGAGTAAACAAATTTTCCTAATCTTTCTGTTCAAGCGCCATCTAC	0.925 RPM ratio (pull-down/input)
GATGATTGTTCTCCCAGCTGATGAATTTGAAGACTCGAGTAAACAAATTTTCCTAATCTTTCTGTTCAAGCGCCATCTAC	0.825 RPM ratio (pull-down/input)
GATGATTGTTCTCCCAGCTGATGAATTACACCCGTCGAGTAAACAAATTTTCCTAATCTTTCTGTTCAAGCGCCATCTAC	1.08 RPM ratio (pull-down/input)
GATGATTGTTCTCCCAGCTGATGAATTCACCGCGTCGAGTAAACAAATTTTCCTAATCTTTCTGTTCAAGCGCCATCTAC	0.877 RPM ratio (pull-down/input)
GATGATTGTTCTCCCAGCTGATGAATTCACCACATCGAGTAAACAAATTTTCCTAATCTTTCTGTTCAAGCGCCATCTAC	1.12 RPM ratio (pull-down/input)
GATGATTGTTCTCCCAGCTGATGAATTAGTAGTATCGAGTAAACAAATTTTCCTAATCTTTCTGTTCAAGCGCCATCTAC	1.2 RPM ratio (pull-down/input)
GATGATTGTTCTCCCAGCTGATGAATTTACGGGCTCGAGTAAACAAATTTTCCTAATCTTTCTGTTCAAGCGCCATCTAC	0.923 RPM ratio (pull-down/input)
GATGATTGTTCTCCCAGCTGATGAATTGGCGGAGTCGAGTAAACAAATTTTCCTAATCTTTCTGTTCAAGCGCCATCTAC	0.75 RPM ratio (pull-down/input)
GATGATTGTTCTCCCAGCTGATGAATTGGGGCGGTCGAGTAAACAAATTTTCCTAATCTTTCTGTTCAAGCGCCATCTAC	0.782 RPM ratio (pull-down/input)
GATGATTGTTCTCCCAGCTGATGAATTGAGTCCTTCGAGTAAACAAATTTTCCTAATCTTTCTGTTCAAGCGCCATCTAC	0.846 RPM ratio (pull-down/input)
GATGATTGTTCTCCCAGCTGATGAATTGTAATAATCGAGTAAACAAATTTTCCTAATCTTTCTGTTCAAGCGCCATCTAC	1.35 RPM ratio (pull-down/input)
GATGATTGTTCTCCCAGCTGATGAATTTGAACGCTCGAGTAAACAAATTTTCCTAATCTTTCTGTTCAAGCGCCATCTAC	0.822 RPM ratio (pull-down/input)
GATGATTGTTCTCCCAGCTGATGAATTAAGATGGTCGAGTAAACAAATTTTCCTAATCTTTCTGTTCAAGCGCCATCTAC	0.87 RPM ratio (pull-down/input)
GATGATTGTTCTCCCAGCTGATGAATTGTCATGGTCGAGTAAACAAATTTTCCTAATCTTTCTGTTCAAGCGCCATCTAC	0.998 RPM ratio (pull-down/input)
GATGATTGTTCTCCCAGCTGATGAATTTAGTTAGTCGAGTAAACAAATTTTCCTAATCTTTCTGTTCAAGCGCCATCTAC	1.11 RPM ratio (pull-down/input)
GATGATTGTTCTCCCAGCTGATGAATTATCCTGGTCGAGTAAACAAATTTTCCTAATCTTTCTGTTCAAGCGCCATCTAC	0.874 RPM ratio (pull-down/input)
GATGATTGTTCTCCCAGCTGATGAATTCACCCGGTCGAGTAAACAAATTTTCCTAATCTTTCTGTTCAAGCGCCATCTAC	0.783 RPM ratio (pull-down/input)
GATGATTGTTCTCCCAGCTGATGAATTGTAACTTTCGAGTAAACAAATTTTCCTAATCTTTCTGTTCAAGCGCCATCTAC	1.15 RPM ratio (pull-down/input)
GATGATTGTTCTCCCAGCTGATGAATTCTCGTACTCGAGTAAACAAATTTTCCTAATCTTTCTGTTCAAGCGCCATCTAC	0.847 RPM ratio (pull-down/input)
